± gives the standard deviation of the averaged measurements. The list shows a part of the results.
Each sequence was assayed on PfAP2-I AP2 domain 3 (GST-tagged) (assay: gcPBM binding intensity (ln(normalized median fluorescence intensity)); higher = stronger DNA binding).
Method in brief: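 The binding buffer was 1× PBS containing 1% milk, 0.2 mg/ml BSA, 0.5% salmon testes DNA and 0.03% Triton X-100. In it, GST-tagged P. falciparum DNA-binding domains expressed in E. coli were applied for 1 h to an Agilent 4 × 180k array of primer-extended double-stranded 36-bp intergenic genomic probes plus negative controls. Binding intensity, read with Alexa488 anti-GST antibody and a 488 nm scan, is the highest Masliner-normalised natural-log median intensity across replicate spots of either probe orientation.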

Sequence	gcPBM binding intensity (ln)
GTATAGAGAAAAAACTGTACTTTATATAAATATTTA [XGTACX_site3972]	7.53 ± 0.3
ATATATATAAAATAAAGTACCCGTAAAACCTATATG [XGTACX_site6937]	8.12 ± 0.54
AAAAAAAAAAAAAAAAAATAATAAAAAATAAAAAAA [GTGCAC_negctrl_site341]	8.67 ± 0.31
TAATTATAAAAATAAAACAACCAAATTTGTTATATA [CACACA_negctrl_site750]	7.24 ± 0.5
TAATTTATAAATAATTGTACATAGTTTATTTAGATT [XGTACX_site4599]	7.5 ± 0.5
GAAAGGAAAAGTTGAACACACAAAGTAAACTATAAG [CACACA_site3535]	7.63 ± 0.78
TATGTTAATCCTATTTGTACATATAATCGAATTAAA [XGTACX_site7090]	7.42 ± 0.24
GACGACTATATTAATTGTACTCAATTTAAGCATAAT [XGTACX_site2750]	7.78 ± 0.44
GCCATTAATTTATACACACACATTAAAATTTTTTAT [CACACA_site4575]	8.3 ± 0.35
TAATGAAGATATATAACACACAAAAGTTATAAATAT [CACACA_site6678]	7.68 ± 0.64
ATATATAATAATATATGTACATAATATTTTTTTTTT [XGTACX_site1941]	7.63 ± 0.28
GCTATAAATACAGACGCACACATATACATACATATA [CACACA_site3329]	8.38 ± 0.41
TTAAAATTAAAAATAGGTACACATATGAACAAGGAC [XGTACX_site1180]	8.8 ± 0.49
TTATATGATATATGACGTACATATTAATAACATCTA [XGTACX_site6716]	7.87 ± 0.25
TGTAATATTTTATAAAGTACATTATAATATAATTCA [XGTACX_site2961]	7.48 ± 0.27
AGATTGAAATATAGTTGTACAAATATTTTAAAACAT [XGTACX_site3026]	7.89 ± 0.61
CAATCAACAAAACATACACACACATATATATATATA [CACACA_site8979]	9.26 ± 0.38
TTGTTCCAATAAAATCGTACAATTAAACAACCAAAC [XGTACX_site5759]	8.29 ± 0.43
TTTTTTTCTATAATACACCAGAAAAAAAAATTAAAA [TGCATGCA_negctrl_site257]	8.47 ± 0.28
CATATCTCTTATTAATGTACATTTTTAAAAGTAAAT [XGTACX_site2847]	7.66 ± 0.4
TTTATATAATGGAAAAGTACTCAGGAAATTTATACA [XGTACX_site3635]	7.79 ± 0.45
CTTTTTTTTATGAACAGTACAGAAATATATATATAC [XGTACX_site5613]	7.79 ± 0.64

Sequence	gcPBM binding intensity (ln)
CAAGAACAAAAAATATGTACATATAATTATATATAT [XGTACX_site2082]	8.16 ± 0.52
ATTGATACATCCAATACACACTACATATAATGATGT [CACACA_site8561]	7.68 ± 0.52
TTTTTTATATATACATATATATAAATATATATAACT [GTGCAC_negctrl_site385]	7.45 ± 0.57
ATATTAATAATATATGCATGCATTAACATATTGAAA [TGCATGCA_site951]	8.12 ± 0.53
GTATGTATGTATATATGTACACATTATTATTTAATG [XGTACX_site5802]	8.44 ± 0.46
GAGAAAAGGAAATTCACACATATAAAGAAAGATCTA [CACACA_site5420]	7.39 ± 0.56
TTTTTGTTCTATATGGTGCATGTTTATATTCGTATT	9.51 ± 0.14
ATTAGCAACATTGATAAATATAAACACACGAAAACA [TGCATGCA_negctrl_site97]	8.09 ± 0.68
CATGTTTATGCCGTTTGTACATATATATCTAAAAAA [XGTACX_site4336]	7.99 ± 0.45
CACGTATATATATATACACACACATATATATATGTA [CACACA_site7948]	8.01 ± 0.46
ATACCATAAATATTGTGTACATAAATATGTTAGTAA [XGTACX_site6077]	7.92 ± 0.38
TTTTAGAAATTTACTAAACTTTATATAACTATTGAA [TGCATGCA_negctrl_site280]	7.51 ± 0.47
GTTCATATCTTTTGAGCACACATATATATATATAAA [CACACA_site9099]	8.53 ± 0.26
ATGATTATAATTTAAAATATTTTACATAACCATTTC [GTGCAC_negctrl_site297]	7.67 ± 0.59
TTTAGCTATTATAGCTGTACAATGATAAAATAAATT [XGTACX_site6318]	7.67 ± 0.57
ATAAGTAAAAATAAAAAAAAAATATATATATATATA [CACACA_negctrl_site1816]	9.35 ± 0.36
AATGAATCCTTATATACACACATTATTATATTATAT [CACACA_site3108]	8.03 ± 0.71
TATTCCTAATTGACAACACACACAACAAAAAAGGGA [CACACA_site8350]	8.3 ± 0.52
ATTATTAACATATATATACACACGAAAAAATTATAT [CACACA_site625]	8.01 ± 0.67
TAATGAAATATTATGTGTACTTAAAAATTATTAAAT [XGTACX_site5261]	7.75 ± 0.42
AGAATTATTTTATGTTTGCACTTTTTTTTTCTATAA [GTGCAC_site9876]	9.48 ± 0.44
CTATAATATGGTATTACACACTGTTATAAGTATGGC [CACACA_site7068]	7.78 ± 0.57

Sequence	gcPBM binding intensity (ln)
TATAAATAGAGACACACACACATATAAATAAATATT [CACACA_site7854]	7.77 ± 0.49
TATATTTCTTCTATAACATGCAGATATATGAAAATA [TGCATGCA_site971]	7.89 ± 0.69
ATATATTTTTTGAATACACACATATTATCTGTAATA [CACACA_site4826]	7.79 ± 0.8
CGAACACAAACACAAACACACATCAGATATAAATAT [CACACA_site6736]	7.75 ± 0.4
TGTTTGCTTATGTGTTAAATATATATATATATATAT [TGCATGCA_negctrl_site218]	9.45 ± 0.39
ATTTTAGGAAAAAAAAGTACATATAATTTTTTATAT [XGTACX_site6954]	7.68 ± 0.27
TTTTTTTTGATATATACACACAATAAATAAATATAA [CACACA_site7400]	7.78 ± 0.39
ATTTATTATTATATCACACATAATATATTAAATGAT [CACACA_site5821]	7.62 ± 0.54
AAAAATATAAAAATAGCACACATATATACATATATA [CACACA_site7901]	7.87 ± 0.3
TATGGAGAAATAAATAGTACGTATTTTATTTAAAAA [XGTACX_site3129]	7.75 ± 0.6
CTTGCAAAAAGTATATGTACATATATATATATATAT [XGTACX_site5792]	9.46 ± 0.32
ATGTTCGATGATAAATGTACAAAAATAATGGAAGTA [XGTACX_site1916]	8.34 ± 0.62
TATAAAAATATTGAAAGTACTTATTAAAATATTATT [XGTACX_site3701]	7.53 ± 0.41
TTTCCTAGCACATGCACACAAAAAAAAAAAAAAAAA [CACACA_site1404]	8.6 ± 0.14
AAAAATAAAGAAACAGGTACGCATATATTAAGATAT [XGTACX_site8097]	7.98 ± 0.78
AATATATTCCACATGTGTACATATATATATATATAT [XGTACX_site8006]	9.43 ± 0.13
TTTCCTTCTACAAAAAATTTTATCAAGAGGAAGTAC [CACACA_negctrl_site926]	7.89 ± 0.4
CCATAGATATTTTATACACACATATAATATATTAAG [CACACA_site4363]	7.63 ± 0.49
ATATGCAAAGAGTATAATCAAAATGTAAATAAATAA [GTGCAC_negctrl_site141]	8.01 ± 0.9
AATATTATTTATATTTGTACACAGTAATATAAAATA [XGTACX_site4884]	7.63 ± 0.38
TTATAAAGAACACAGACACACAAAGAAAGAACCAAT [CACACA_site4175]	8.27 ± 0.57
CACAAATAAATACATACACACATATATACTCATATA [CACACA_site4379]	7.71 ± 0.2

Sequence	gcPBM binding intensity (ln)
TGGGCGTCATAATGAACACACAATTATATTATGACT [CACACA_site3910]	7.51 ± 0.51
TTACACAAATAGCTGCATTTATAAAATACAATTAAA [CACACA_negctrl_site241]	8.01 ± 0.3
AAATATATATATTTACGTACATATATACAAATAGAG [XGTACX_site6067]	8.38 ± 0.25
TTTTGTCAATTTTAGATTTTTCAATACATGGATATT [CACACA_negctrl_site319]	7.27 ± 0.64
ATATATATATATTTATGTACGAATATGTTTAATTTA [XGTACX_site3986]	9.31 ± 0.33
ATATATATAATAATATGTACGGAAAAAGCTTAAGCT [XGTACX_site5661]	8.17 ± 0.51
AATACATATAAAAGTACACACACACCCATATATATA [CACACA_site8220]	8.47 ± 0.71
ATAGAATACATATATGAACACACAGAGTTTTAAAAA [CACACA_site8879]	7.69 ± 0.47
TATATTATATATATGTGTACATATAAATGTAACAAA [XGTACX_site5025]	7.67 ± 0.34
TTTTTTTTTTGATGTTGTACATATATACTATATAAT [XGTACX_site1332]	7.92 ± 0.66
GAAAATAAAAAAAATAAAAAAAATAAAAAAAATTAT [XGTACX_negctrl_site443]	7.54 ± 0.91
TTTTGTAACCTATGCACGCACACAAGAAAAAAACAA [CACACA_site3776]	9.17 ± 0.042
TAAATATCTAAAGACTGTACAATTAAATATAAACAT [XGTACX_site1450]	7.72 ± 0.56
AGTTTATTTGTAAAAAGTACATATTTAAGAAAACTT [XGTACX_site2318]	7.88 ± 0.33
AAATTTGGCAAACACACACACACACCCACACCCACA [CACACA_site8095]	8.11 ± 0.21
TTCTAACTCTAACAAGTGCAATATATATACATAATA	10.5 ± 0.18
AATATATATCATCACACACACATACATAAATATATA [CACACA_site184]	8 ± 0.43
AGAGAAAGAAGGGAGAAAAAATAAAATAAAATAAAA [GTGCAC_negctrl_site299]	7.89 ± 0.65
AATAAAAAAAAACTCATGCACACAATATTATGAAAA [CACACA_site664]	8.03 ± 0.44
TGCATATGCATTATTTGTACATATGTAGATAATTAT [XGTACX_site6930]	8.21 ± 0.47
CATATATAGATATATACACACATACATACATACATA [CACACA_site7748]	7.97 ± 0.81
AAAAATTACAAATACAAACACACAAATGTTTTTCAT [CACACA_site3551]	7.6 ± 0.42
